Experimental data from the supplement of paper PMC10126150.
Sequences with one replicate were seen in a single cluster, so their values are uncertain.

system: ATP; assay: switch fluorescence ratio, 500 uM ATP over buffer (Cy3 cluster intensity, sum of 5 cycles each) (fold (ratio)); higher = stronger signal-on switching upon ATP binding; sequences stand for … in TCGTCGGCAGCGTCAGATGTGTATAAGAGACAGTTTTTTTTTTTTTTTTTTTTTTTTT…TC; conditions: aptamer strand: ATP DNA aptamer (quencher-CACCTGGGGGAGTATTGCGGAGGAAGG + anchor), 100 nM annealed; ATP concentration: 500 uM; one replicate
Summary of the method: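 The quencher-labelled ATP aptamer, at 100 nM, was annealed to Cy3-labelled switching-strand clusters on a modified Illumina MiSeq flow-cell. The clusters were imaged in selection buffer, then after 15 min with 500 uM ATP at 22 °C, and this buffer/ATP cycle ran five times with NaOH stripping and re-annealing between runs. Per-cluster fluorescence ratios, summed target-cycle over summed buffer-cycle Cy3 intensity, were averaged per switch-domain sequence. Clusters outside 100-1000 RFU were excluded.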
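Further: ATP exposure 15 min at 22 °C before imaging.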

Sequence	switch fluorescence ratio
TTCATCTCTC	1.01
TTCATCTTGA	1.03
TTCATGGAAG	1.02
TTCATGGGTT	0.965
TTCATTTAA	1.07
TTCCACATAA	1.03
TTCCAGGAGT	1.23
TTCCATACGT	1.04
TTCCATTTGA	0.967
TTCCCCCTTG	1.27
TTCCCCGAAA	2.46
TTCCCGAGAC	2.23
TTCCCGAGCC	1.13
TTCCCTCATG	1.09
TTCCCTCTAT	1.01
TTCCGAGGAG	1.04
TTCCGGATCT	1.14
TTCCGGTAGT	1.05
TTCCGTATAT	1.57
TTCCTAAGTC	1.03
TTCCTATCCG	1.08
TTCCTATGCG	1.11
TTCCTGAAGA	1.03
TTCCTTCCGA	3.47
TTCCTTGTT	0.945
TTCGAAAGC	1.15

Sequence	switch fluorescence ratio
TTCGAACAGA	1.07
TTCGAACGAC	1.23
TTCGAATTTA	0.937
TTCGACCGCG	0.958
TTCGACGTGT	0.984
TTCGACTAAG	1.01
TTCGAGAGAT	0.998
TTCGATAATT	0.991
TTCGATAGA	1.01
TTCGATGGTA	0.972
TTCGCAACT	1.29
TTCGCACAAT	1.17
TTCGCACTCA	1.27
TTCGCAGCGA	2.14
TTCGCCCGGC	1.2
TTCGCCGCCC	2.49
TTCGCGCGAG	1.04
TTCGCGGGTC	1.02
TTCGCGGTAT	1.08
TTCGCGTTCA	0.997
TTCGCTGAAG	1.04
TTCGCTTTTC	1.18
TTCGGAAATC	1.9
TTCGGAAT	1.05
TTCGGACACC	0.959
TTCGGATCGG	0.98

Sequence	switch fluorescence ratio
TTCGGCAATT	1.8
TTCGGCAGCG	1.04
TTCGGCTTAA	1.8
TTCGGGAAAT	1.04
TTCGGGACAG	0.998
TTCGGTATAA	1.05
TTCGGTCGA	1.03
TTCGGTCTAC	1.28
TTCGTACGT	1.04
TTCGTACT	1.02
TTCGTCCGAC	2.37
TTCGTCGCCC	1.01
TTCGTCGGG	0.993
TTCGTGCCTT	1.05
TTCGTGGACA	0.957
TTCGTTGCGG	0.992
TTCGTTGGCA	1.06
TTCTAAAGA	1.03
TTCTAATAGC	1.05
TTCTACAATT	0.979
TTCTAGAGCA	1.11
TTCTATCAGT	0.997
TTCTATCATT	1.03
TTCTCACGGA	1.04
TTCTCACGGG	1.26
TTCTCACGTT	1.04

Sequence	switch fluorescence ratio
TTCTCATATT	0.992
TTCTCGGGAA	1.06
TTCTCTTGCG	0.972
TTCTGCCGAG	1.13
TTCTGCGGAC	3.25
TTCTGCTCG	0.983
TTCTGGGATT	1.01
TTCTGGTTCG	0.959
TTCTGTAAAT	1.19
TTCTGTATTC	1
TTCTTAACG	0.994
TTCTTAGCCC	0.893
TTCTTATGTA	1.03
TTCTTCCTAT	1.05
TTCTTCGTCA	1.01
TTCTTCTAGC	0.988
TTCTTGACCG	0.994
TTCTTGGTTG	1
TTCTTTATA	0.983
TTCTTTGAC	0.993
TTGAAAATGC	1
TTGAAAGAGG	0.994
TTGAAGAGGA	0.95
TTGAAGGTCG	1.02
TTGAAGTCCT	1.02
TTGAAGTTTG	0.995

Sequence	switch fluorescence ratio
TTGAATGATA	0.998
TTGAATGGT	0.975
TTGAATGTAG	0.985
TTGAATTAAA	1
TTGAATTCCA	0.92
TTGAATTTAT	1
TTGACAAGG	1.01
TTGACACCAA	1.06
TTGACACTAT	1.07
TTGACATCTA	1.08
TTGACGAG	1.02
TTGACGTTTT	1.03
TTGAGACT	1.01
TTGAGAGCAC	1.01
TTGAGAGGG	1.02
TTGAGCGCCG	0.991
TTGAGGTATT	0.995
TTGAGTAAGG	1.02
TTGAGTAGA	0.975
TTGAGTATTC	1.03
TTGAGTCAGA	1.01
TTGAGTTGCA	0.962
TTGATAGCTG	1.03
TTGATAGGTT	0.943
TTGATGCCAA	1.11
TTGATGTAGG	0.969

Sequence	switch fluorescence ratio
TTGATTAAAC	1.01
TTGATTGAGC	0.984
TTGATTGTAA	1
TTGATTTTAT	0.995
TTGCAAGCC	1.61
TTGCAAGTGA	1.01
TTGCACTCGT	1.02
TTGCACTTTT	1.01
TTGCAGGATT	1.04
TTGCAGGCTA	1.02
TTGCAGGTGC	1.54
TTGCAGTCTT	1.02
TTGCAGTGAA	0.988
TTGCATGTGG	0.984
TTGCCAACAT	1.03
TTGCCACCAC	1.06
TTGCCCACA	1.02
TTGCCCAGC	0.935
TTGCCCATTT	1.03
TTGCCCTGTA	1.08
TTGCCGAGCT	1.06
TTGCCGAGTT	0.961
TTGCCGCGAA	1.35
TTGCCGCTTT	1.01
TTGCCGGATT	1.04
TTGCCTGAG	1.1

Sequence	switch fluorescence ratio
TTGCGACGTA	0.995
TTGCGCACTC	1.01
TTGCGCCGGG	0.959
TTGCGGCGGG	0.984
TTGCGGCTCA	1.07
TTGCGGGAAG	1.04
TTGCGGGCGA	1.01
TTGCGGTGGT	0.995
TTGCGTGCTG	0.985
TTGCGTGTTT	0.99
TTGCGTTGGG	1.02
TTGCTAATGG	0.964
TTGCTACCAG	1.01
TTGCTCCATC	1
TTGCTCCTCG	1.01
TTGCTCGGAG	0.997
TTGCTCTT	1.03
TTGCTGCTG	0.991
TTGCTTCAGT	0.989
TTGGAACCGG	0.984
TTGGAACGGT	1.02
TTGGAATTAA	0.984
TTGGACACT	1.01
TTGGACGTAA	1.88
TTGGACTAAT	0.931
TTGGAGTATG	1.01

Sequence	switch fluorescence ratio
TTGGAGTGAC	0.996
TTGGATGTTC	1.01
TTGGATTCA	0.995
TTGGATTTCC	1.07
TTGGCAGACT	1
TTGGCAGTAT	1.02
TTGGCCTAGC	1.01
TTGGCGGATG	0.996
TTGGGACGAT	1.05
TTGGGATCAT	1.03
TTGGGATTCC	1.03
TTGGGCGAAA	1.02
TTGGGCTCGT	1.02
TTGGGCTTCC	0.967
TTGGGGCTCA	0.994
TTGGGGTCT	1.05
TTGGGTGCAA	1.04
TTGGTACATA	1.06
TTGGTAGTAC	1.32
